Measured values as given in patent publication US7981890B2, “Phthalazinone derivatives” (AstraZeneca AB, priority 2007, dated 2011).

target: Mammalian PARP, isolated from Hela cell nuclear extract (Homo sapiens, UniProt P09874); experiment: PARP inhibition assay (FlashPlate, 3H-NAD); format: biochemical
Procedure: In order to assess the inhibitory action of the compounds, the following assay was used to determine IC50 values.
All compounds were diluted in DMSO and gave final assay concentrations of between 10 and 0.01 μM, with the DMSO being at a final concentration of 1% per well. The total assay volume per well was 4 μl.
After 10 minutes incubation at 30° C. the reactions were initiated by the addition of a 10 μl reaction mixture, containing NAD (5 μM), ^3H-NAD and 30mer double stranded DNA-oligos. Designated positive and negative reaction wells were done in combination with compound wells (unknowns) in order to calculate % enzyme activities. The plates were then shaken for 2 minutes and incubated at 30° C. for 45 minutes.
Following the incubation, the reactions were quenched by the addition of 50 μl 30% acetic acid to each well. The plates were then shaken for 1 hour at room temperature.
The plates were transferred to a TopCount NXT (TRADE MARK) (Packard, UK) for scintillation counting. Values recorded are counts per minute (cpm) following a 30 second counting of each well.
The % enzyme activity for each compound is then calculated using the following equation:
[formula] IC50 values (the concentration at which 50% of the enzyme activity is inhibited) were calculated, which are determined over a range of different concentrations, normally from 10 μM down to 0.001 μM. Such IC50 values are used as comparative values to identify increased compound potencies.

Chain of UniProt P09874 (P09874 whole entry): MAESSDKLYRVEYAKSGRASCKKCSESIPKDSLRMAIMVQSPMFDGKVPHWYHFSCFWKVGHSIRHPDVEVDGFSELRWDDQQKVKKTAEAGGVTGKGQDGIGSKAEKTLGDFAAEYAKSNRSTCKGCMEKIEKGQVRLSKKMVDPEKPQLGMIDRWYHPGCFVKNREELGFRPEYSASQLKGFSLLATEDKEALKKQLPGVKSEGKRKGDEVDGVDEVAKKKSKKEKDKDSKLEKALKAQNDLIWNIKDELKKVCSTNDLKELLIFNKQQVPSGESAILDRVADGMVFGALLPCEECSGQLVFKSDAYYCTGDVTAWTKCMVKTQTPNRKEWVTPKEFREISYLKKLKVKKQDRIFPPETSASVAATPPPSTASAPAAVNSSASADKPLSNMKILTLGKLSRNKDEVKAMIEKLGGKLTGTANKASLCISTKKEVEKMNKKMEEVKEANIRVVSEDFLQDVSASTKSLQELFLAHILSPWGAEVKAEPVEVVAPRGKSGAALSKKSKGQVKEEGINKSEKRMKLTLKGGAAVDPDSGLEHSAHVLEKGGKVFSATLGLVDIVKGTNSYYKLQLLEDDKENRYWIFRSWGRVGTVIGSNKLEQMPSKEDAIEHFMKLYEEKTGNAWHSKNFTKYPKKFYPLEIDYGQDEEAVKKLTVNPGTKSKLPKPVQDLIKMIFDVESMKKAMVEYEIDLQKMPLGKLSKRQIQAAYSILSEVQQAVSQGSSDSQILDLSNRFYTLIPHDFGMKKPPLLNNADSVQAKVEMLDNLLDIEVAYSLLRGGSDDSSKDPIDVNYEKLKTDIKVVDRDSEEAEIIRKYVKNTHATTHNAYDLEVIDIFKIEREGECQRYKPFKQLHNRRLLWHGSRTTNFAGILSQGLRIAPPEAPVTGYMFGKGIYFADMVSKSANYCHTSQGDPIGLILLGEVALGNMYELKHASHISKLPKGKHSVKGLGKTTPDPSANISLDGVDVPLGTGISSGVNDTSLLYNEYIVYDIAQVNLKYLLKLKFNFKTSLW

Structure (SMILES)	IC50 [nM]
C[C@H]1NC(=O)N(c2cc(Cc3n[nH]c(=O)c4c3CCCC4)ccc2F)C1=O (single isomer, unassigned) [Compound 13b]	5
C[C@@H]1NC(=O)N(c2cc(Cc3n[nH]c(=O)c4c3CCCC4)ccc2F)C1=O (single isomer, unassigned) [Compound 13a]	3

Continued by falling IC50, values first:

IC50 [nM]	Structure (SMILES)
28	CC1(C)NC(=O)N(c2cccc(Cc3n[nH]c(=O)c4c3CCCC4)c2)C1=O [Compound 15, 5,5-dimethyl-3-[3-[(4-oxo-5,6,7,8-tetrahydro-3H-phthalazin-1-yl)methyl]phenyl]imidazolidine-2,4-dione]
5	CC1NC(=O)N(c2cccc(Cc3n[nH]c(=O)c4c3CCCC4)c2)C1=O (centres unmarked) [Compound 6, 5-Methyl-3-[3-(4-oxo-3,4,5,6,7,8-hexahydro-phthalazin-1-ylmethyl)-phenyl]-imidazolidine-2,4-dione]
4	CC1NC(=O)N(c2cc(Cc3n[nH]c(=O)c4c3CCCC4)ccc2F)C1=O (centres unmarked) [Compound 13, 3-[2-Fluoro-5-(4-oxo-3,4,5,6,7,8-hexahydro-phthalazin-1-ylmethyl)-phenyl]-5-methylimidazolidine-2,4-dione]
